The values that follow come from publication PMC4336329 (PLoS ONE, 2015).

The campaign covered roughly 310,000 compounds. About 2,200 (0.71%) showed an effect of 50% or more. Effects have a minus sign here. The list shows a part of the results.

For this test, the target named is human ether-à-go-go-related gene (hERG) potassium channel (human, UniProt Q12809). The experiment in a line: primary screen, population patch clamp on CHO cells stably expressing hERG.
Sequence of human ether-à-go-go-related gene (hERG) potassium channel (Q12809 whole entry, looked up): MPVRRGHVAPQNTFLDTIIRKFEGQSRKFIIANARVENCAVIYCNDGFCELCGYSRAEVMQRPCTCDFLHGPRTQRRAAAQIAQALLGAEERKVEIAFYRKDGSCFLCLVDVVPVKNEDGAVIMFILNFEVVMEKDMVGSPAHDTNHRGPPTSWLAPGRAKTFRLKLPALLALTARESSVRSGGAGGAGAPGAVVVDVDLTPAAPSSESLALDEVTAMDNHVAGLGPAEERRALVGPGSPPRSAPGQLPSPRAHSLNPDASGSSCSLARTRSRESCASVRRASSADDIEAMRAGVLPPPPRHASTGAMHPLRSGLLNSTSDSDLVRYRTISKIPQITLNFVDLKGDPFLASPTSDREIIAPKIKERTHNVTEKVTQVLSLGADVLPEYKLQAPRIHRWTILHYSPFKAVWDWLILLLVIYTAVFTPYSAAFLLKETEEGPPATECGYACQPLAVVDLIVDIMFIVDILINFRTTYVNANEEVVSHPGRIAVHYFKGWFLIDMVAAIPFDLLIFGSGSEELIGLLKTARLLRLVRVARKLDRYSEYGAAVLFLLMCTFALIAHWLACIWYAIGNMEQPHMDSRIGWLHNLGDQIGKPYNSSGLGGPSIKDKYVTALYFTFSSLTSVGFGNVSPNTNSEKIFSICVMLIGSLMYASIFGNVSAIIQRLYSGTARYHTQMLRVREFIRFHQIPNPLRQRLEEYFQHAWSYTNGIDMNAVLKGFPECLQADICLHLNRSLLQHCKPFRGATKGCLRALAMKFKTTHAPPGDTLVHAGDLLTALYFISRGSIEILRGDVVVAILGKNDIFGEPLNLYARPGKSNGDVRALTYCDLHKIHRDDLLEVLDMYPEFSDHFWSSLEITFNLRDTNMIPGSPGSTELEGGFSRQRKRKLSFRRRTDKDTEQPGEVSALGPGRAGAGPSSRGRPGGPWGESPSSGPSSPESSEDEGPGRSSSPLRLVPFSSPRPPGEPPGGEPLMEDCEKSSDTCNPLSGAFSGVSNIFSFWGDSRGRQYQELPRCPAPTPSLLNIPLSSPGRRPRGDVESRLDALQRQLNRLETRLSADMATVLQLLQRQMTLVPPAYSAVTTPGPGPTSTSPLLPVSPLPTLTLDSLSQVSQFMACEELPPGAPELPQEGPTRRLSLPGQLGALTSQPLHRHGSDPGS
Regarding `Cc1cccc(N2C(=O)CC(Sc3nnc(C)s3)C2=O)c1` (centres unmarked), the “hERG current change (%, negative = inhibition) at 1uM” value worked out at 13.5%.

Turning to `Cc1ccc(S(=O)(=O)N2CCC(=O)N(CCOCc3cccc(C(F)(F)F)c3)CC2)cc1`, the “hERG current change (%, negative = inhibition) at 1uM” value amounted to 1.61%.

Consider `Cc1ccc(CCCOC(=O)CN2CCCCC2)cc1`, for which the “hERG current change (%, negative = inhibition) at 1uM” value is listed as 1.99%.

As to `O=C(CCc1ccccc1)Nc1nc2n(n1)C(c1ccc(Cl)cc1)CC(=O)N2` (centres unmarked), the “hERG current change (%, negative = inhibition) at 1uM” value is recorded as 4.88%.

Take `Cc1ccc(SCC(=O)NC2CC3CCC(C2)N3C)cc1` (centres unmarked): the “hERG current change (%, negative = inhibition) at 1uM” value is listed as 8.52%.

For the compound `Cc1c([C@H]2[C@@H](CC#N)C2(C)C)c2ccccc2n1C`, the “hERG current change (%, negative = inhibition) at 1uM” value is -2.83%.

With `CSC1=NCCCN1C(=O)c1c(-c2ccccc2Cl)noc1C`, the “hERG current change (%, negative = inhibition) at 1uM” value came out at 8.75%.

As to `Cc1ccc(NC(=O)C2CCCN2C(=O)NC2CCCCC2)cc1C` (centres unmarked), the “hERG current change (%, negative = inhibition) at 1uM” value is reported as 8.06%.

Consider `c1ccc(CSc2ccc(-c3ccc4c(c3)OCO4)nn2)cc1`, for which the “hERG current change (%, negative = inhibition) at 1uM” value is recorded as 9.42%.

On to `COc1cc(NC(=O)CN2CCN(c3ccccn3)CC2)cc(OC)c1OC`, for which the “hERG current change (%, negative = inhibition) at 1uM” value stood at 11.6%.

Turning to `COc1ccc(-c2c[n+]3c(n2-c2ccc(C)cc2)CCCCC3)cc1.[Br-]`, the “hERG current change (%, negative = inhibition) at 1uM” value is -2.01%.

For `Cc1nnc(Nc2ccc(C(=O)NCCO)cc2)c2ccccc12`, the “hERG current change (%, negative = inhibition) at 1uM” value is recorded as 10.2%.

With `COCCNCCCCOc1c(Cl)cc(C)cc1Br`, the “hERG current change (%, negative = inhibition) at 1uM” value came to 3.97%.

`CCN(CC)C(=O)CSc1nnc(COc2ccccc2)n1CC`: the “hERG current change (%, negative = inhibition) at 1uM” value was determined as 8.23%.

Consider `Cc1cccn2c(=O)c(C(=O)NCCCN3CCCCC3C)c(O)nc12` (centres unmarked), for which the “hERG current change (%, negative = inhibition) at 1uM” value turned out to be 9.97%.

Consider `COCCNC(=O)C(c1ccc(F)cc1)N(CCOC)C(=O)CCC(=O)Nc1nccs1` (centres unmarked), for which the “hERG current change (%, negative = inhibition) at 1uM” value was determined as 1.04%.

For `COc1ccc(/C(N)=N/OC(=O)c2cccs2)cc1`, the “hERG current change (%, negative = inhibition) at 1uM” value came to 18.5%.

Turning to `CCCC(=O)N=c1sc2c(OC)ccc(OC)c2n1C`, the “hERG current change (%, negative = inhibition) at 1uM” value is listed as 8.85%.

Consider `COc1ccc(C2CC(=O)Oc3c2c(=O)n(C)c2ccccc32)c(OC)c1OC` (centres unmarked), for which the “hERG current change (%, negative = inhibition) at 1uM” value turned out to be 15.3%.

In the case of `O=C(c1ccc[nH]c1=S)N1CCN(S(=O)(=O)c2ccc(Br)cc2Cl)CC1`, the “hERG current change (%, negative = inhibition) at 1uM” value amounted to 6.98%.

In the case of `Cc1nc2c(c(=O)c3ccccc3n2C)c(=O)n1-c1ccc(F)cc1`, the “hERG current change (%, negative = inhibition) at 1uM” value was 4.74%.

Turning to `O=C(Cn1cc(C=C2C(=O)NC(=O)NC2=O)c2ccccc21)NCC1CCCO1` (centres unmarked), the “hERG current change (%, negative = inhibition) at 1uM” value is 15.8%.

Regarding `CC(C)CCc1c(O)nc(SCC(C)C)[nH]c1=O`, the “hERG current change (%, negative = inhibition) at 1uM” value came out at 6.91%.

For the compound `COc1ccccc1CNC(=O)/C=C/c1cc2c(cc1Br)OCO2`, the “hERG current change (%, negative = inhibition) at 1uM” value is recorded as 13.4%.

For `CC(=O)c1ccc(NC(=O)C2=CC(c3ccco3)=NS(=O)(=O)N2C)cc1`, the “hERG current change (%, negative = inhibition) at 1uM” value was found to be 13%.

On to `COc1ccc(S(=O)(=O)NCC(c2cccnc2)N2CCN(Cc3ccccc3)CC2)cc1C` (centres unmarked), for which the “hERG current change (%, negative = inhibition) at 1uM” value was -65.5%.
